# Measurements: ChEMBL document CHEMBL4888484, “Replenishing the malaria drug discovery pipeline: Screening and hit evaluation of the MMV Hit Generation Library 1 (HGL1) against asexual blood stage Plasmodium falciparum ,using a nano luciferase reporter read-out” (2022)
# The whole screen tested about 150,000 compounds, of which about 540 (0.36%) showed an effect of 50% or more. This is one part of the list.
# Tested on: Plasmodium falciparum
# Experiment: Primary screen in NF54 nanoGlo assay, in single point, at 2uM, 72h; a lower Z score goes with more inhibition
# Format: functional, Erythrocyte
# Details: timepoint 72 hour
Structure (SMILES),% Inhibition [%],Z score
CC(=O)c1cccc(NC(=O)Cn2ccn3ccnc3c2=O)c1,6,-1.21
CC(C)c1ccc(NCC(=O)Nc2ncc(Cc3ccc(Cl)cc3)s2)cc1,9,-1.23
CC(C)(NCC#N)c1c(Cl)cccc1Cl,-20,3.07
Cc1ccc(C(=O)N(C)Cc2ccsc2)n1C,-15,2.03
O=c1ccn(-c2ccc(Cl)c(-c3ccc(Cl)cc3)c2)[nH]1,-10,1.56
CCCCOc1ccc(C(=O)N2CCN(c3nc(CN4CCN(Cc5ccccc5)CC4)cc(=O)[nH]3)CC2)cc1,-8,1.3
CCN(CC)CCN(CC(=O)N1CCCN(c2ccc(-c3ccc(OC)cc3)nn2)CC1)C(=O)c1ccccc1,-8,1.14
N#CC1CCCCC1OC(=O)c1cccc(C2OCCO2)c1 (stereo not drawn),-3,0.35
COc1cc(OC)c(NC(=O)CN2C(=O)CCn3nc(-c4cccn4C)cc32)cc1Cl,-4,0.78
CC[C@@](C)(CNC(=O)OC(C)(C)C)C(=O)Nc1cc(OC)ccc1O,6,-1
CN(C(=O)OC(C)(C)C)[C@H]1CCN(CC2CCOCC2)C1,-9,0.83
CN(CC(=O)N1CCC(c2ccccc2)=N1)C1Cc2ccccc2C1,-1,0.17
O=C(NCCCOCC1CC1)NC1CCCCCC1CO (stereo not drawn),1,-0.13
CCOC(=O)c1cccnc1N(C)C[C@H]1CCCCO1,-8,0.77
O=C(c1ccc2c(c1)CCC2)N1CCN(CCO)CC1,-14,1.78
O=C(O)C1CCC(=O)N(CCc2cccnc2)C1c1ccc(F)cc1 (stereo not drawn),-1,0.1
CN1CC[C@H](N(C)c2nc(-c3ccccc3)no2)C1=O,-3,0.64
O=C1Nc2ccccc2Oc2cc(NC3CCCC3)c(S(=O)(=O)N3CCCC3)cc21,-9,1.33
O=c1ccc(F)cn1Cc1nccn1C(F)F,-12,1.22
CCN1CCN(c2c(CN(Cc3ccccc3C(F)(F)F)CC(C)C)c(C)nn2-c2cccc(F)c2)CC1,4,-0.54
O=S(=O)(Nc1cnn([C@H]2CCOC2)c1)c1cc(F)ccc1F,11,-1.42
Cc1ccsc1-c1nccn1CC[C@H]1CCCN1C,8,-1.37
COCc1nccc(NC(=O)N2CCC(c3ccon3)CC2)n1,-11,2.02
Cc1ccc(OCCCOc2ccc(CO)nc2)cc1C,36,-4.1
Cc1oc(C2CCC2)nc1C(=O)NCCCN(C)c1ccccc1,-14,1.8
CCN(CC)CCNC(=O)C1CCN(c2nc3cccnc3s2)CC1,-6,0.54
O[C@H]1[C@H](NCc2ccccc2)[C@@H](C2CCCCC2)C[C@H]1O,18,-2.12

Structure (SMILES),% Inhibition [%],Z score
CS(=O)(=O)N(CCN1CCCCC1)C1CN(C(=O)COc2ccccc2)C1,-5,0.63
O=S(=O)(N1CCCCC1)N1[C@@H]2CC[C@H]1C[C@@H](O)C2,-9,1.37
CC[C@](C)(OC)c1noc(-c2cc3c(s2)CCOC3)n1,-11,1.46
O=C(CN1C(=O)c2ccccc2Oc2ncccc21)NCCCO,-14,1.48
C=CCOC1CCN(C(=O)CCN2CCOC2=O)CC1,-4,0.57
COC(C(=O)N(C)CC1CCCN1C)c1ccc(O)cc1 (stereo not drawn),-12,2.36
CC[C@@H]1C[C@H]1NC(=O)CS(C)(=O)=O,18,-2.08
COc1ccc(C(N)=O)cc1C[C@H]1CCCCO1,-9,1.07
CCc1nc(C)c(C(=O)N2CCC[C@H](c3ccccc3C)C2)o1,7,-0.97
CCc1csc(-c2ccc(N3CCN(C(=O)c4nccc5ccccc45)CC3)nc2)n1,8,-1.3
CC(C)(C)OC(=O)[C@H]1CCCN(c2ncnc(N)c2Cl)C1,-4,0.52
O=C(NCCOCCc1ccccc1)Nc1cccnc1,-25,2.3
CC(C)NS(=O)(=O)NC1(c2nc3ccccc3s2)COC1,-11,1.41
CCc1ccc(NC(=O)[C@H]2CCCN(c3c(-c4ccccc4)c4cc(Cl)ccc4[nH]c3=O)C2)cc1,-6,0.86
Cc1cc(N[C@@H](Cc2ccccc2)C(=O)N2CCOCC2)nc(C2CC2)n1,10,-0.98
Cc1cc(C(=O)NC[C@H]2CCCN2c2ccccc2)no1,0,0.02
CC(C)O[C@H]1C[C@@H](NC(=O)c2ccc3[nH]c(=O)[nH]c3c2)C1,-15,2.74
CCOCCNC(=O)Nc1ccnn1C[C@@H]1CC=CCC1,5,-0.7
NC(=O)C1CCN(C(=O)c2ccc3nc(-c4ccc(F)cc4)c(-c4ccc(F)cc4)nc3c2)CC1,1,-0.14
C[C@@H](CCc1ccccc1)NC(=O)NCCCC(N)=O,-4,0.74
CCCOc1ccc(N2C(=O)C3ON(c4ccccc4)C(c4ccc(OC(=O)c5ccccc5)c(OC)c4)C3C2=O)cc1 (stereo not drawn),1,-0.25
CC(C)c1noc([C@@H]2CCCCN2C(=O)c2cnc(-c3ccccc3)nc2O)n1,0,-0.01
CNC(=O)CCc1nc(COC)nn1-c1cccc(C)n1,-6,1
Cc1cc(C)c2nonc2c1S(=O)(=O)N(CCOc1ccccc1)C[C@H]1CCCO1,-16,2.11
Cc1ccc(-c2noc(Cn3nc(-c4ccc(Br)cc4)ccc3=O)n2)cc1C,-8,1.11
N=C1NC(=O)O[C@@]12CCCc1ccccc12,1,-0.28
CC(C)N1C[C@@H](O)C[C@H]1c1nnc2n1CCN(Cc1cn(C)c3ccccc13)C2,5,-0.81
